Article PMC4336329 (PLoS ONE, 2015)
Out of some 310,000 compounds screened, about 14,000 (4.5%) showed an effect of 50% or more. Effects have a minus sign here. Some of the results follow.

Molecular target: human ether-à-go-go-related gene (hERG) potassium channel (human, UniProt Q12809)
Assay: primary screen, population patch clamp on CHO cells stably expressing hERG
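Also: peak tail current of the secondary pulse compared with the same well before compound.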

Chain of human ether-à-go-go-related gene (hERG) potassium channel (Q12809 whole entry, looked up): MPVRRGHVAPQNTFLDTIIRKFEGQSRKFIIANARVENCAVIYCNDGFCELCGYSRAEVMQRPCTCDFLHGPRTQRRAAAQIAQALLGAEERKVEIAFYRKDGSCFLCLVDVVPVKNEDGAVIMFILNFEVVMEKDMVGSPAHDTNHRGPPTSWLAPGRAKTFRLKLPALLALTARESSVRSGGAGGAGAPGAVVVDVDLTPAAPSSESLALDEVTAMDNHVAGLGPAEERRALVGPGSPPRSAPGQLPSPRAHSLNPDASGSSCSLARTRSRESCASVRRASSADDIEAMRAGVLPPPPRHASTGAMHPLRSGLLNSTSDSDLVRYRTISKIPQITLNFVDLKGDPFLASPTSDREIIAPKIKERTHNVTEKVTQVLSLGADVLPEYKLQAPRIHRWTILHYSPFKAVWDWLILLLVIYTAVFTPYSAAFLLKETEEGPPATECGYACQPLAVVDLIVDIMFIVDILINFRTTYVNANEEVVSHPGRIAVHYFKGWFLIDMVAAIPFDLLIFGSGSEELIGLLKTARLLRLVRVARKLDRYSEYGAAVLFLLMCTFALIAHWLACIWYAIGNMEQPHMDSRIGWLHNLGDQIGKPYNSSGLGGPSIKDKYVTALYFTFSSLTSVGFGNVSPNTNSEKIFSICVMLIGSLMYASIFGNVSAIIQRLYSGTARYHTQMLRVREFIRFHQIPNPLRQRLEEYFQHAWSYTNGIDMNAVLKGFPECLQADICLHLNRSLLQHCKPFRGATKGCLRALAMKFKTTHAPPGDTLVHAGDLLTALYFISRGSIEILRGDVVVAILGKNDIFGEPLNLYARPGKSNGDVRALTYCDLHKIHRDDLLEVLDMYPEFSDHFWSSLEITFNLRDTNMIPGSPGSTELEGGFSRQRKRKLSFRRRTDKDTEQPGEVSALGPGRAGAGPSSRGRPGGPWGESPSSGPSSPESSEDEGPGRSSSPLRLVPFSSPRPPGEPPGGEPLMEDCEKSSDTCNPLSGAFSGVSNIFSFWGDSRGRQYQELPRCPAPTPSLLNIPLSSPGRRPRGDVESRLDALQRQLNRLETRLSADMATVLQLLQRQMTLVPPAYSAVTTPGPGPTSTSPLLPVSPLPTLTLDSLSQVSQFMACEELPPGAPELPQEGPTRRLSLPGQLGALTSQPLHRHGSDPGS

Going from `O=C(CSc1nc(C(F)(F)F)cc(=O)[nH]1)N1CCOCC1` to `CCCNS(=O)(=O)c1ccc(CCC(=O)N2CCOCC2)cc1`, the “hERG current change (%, negative = inhibition) at 10uM” value rises from 3.21% to 3.77%.

Compared with `CCOC(=O)c1c(CN2CCN(C)CC2)n(C)c2cc(Br)c(OC)cc12`, `COc1ccc(N2CCN(CCCNS(=O)(=O)c3ccc4c(c3)oc(=O)n4C)CC2)cc1` is higher in “hERG current change (%, negative = inhibition) at 10uM” value: -50.4% for the first, -16.3% for the second.

First: O=C(COC(=O)CCSc1ccc(Cl)cc1)NCc1ccccc1Cl
Second: O=C(/C=C/c1ccc(OCCCF)cc1)NCc1cccc(Cl)c1
The “hERG current change (%, negative = inhibition) at 10uM” value of the first is lower: -5.97% for the first, -2.82% for the second.

Compared with `O=C1C2CCCCC2C(=O)N1c1ccc(NC2CCN(Cc3ccccc3)CC2)c([N+](=O)[O-])c1` (stereo not drawn), `CCc1cccc(NC(=O)c2cccc3c2C(=O)N(C2CCCCC2)C3)c1` is higher in “hERG current change (%, negative = inhibition) at 10uM” value: -42.1% for the first, 19.4% for the second.

Going from `CC(NCc1ccc(OCC(N)=O)cc1)C12CC3CC(CC(C3)C1)C2.Cl` (stereo not drawn) to `CC(C)CC(=O)Nc1ccc(OCC(=O)O)cc1`, the “hERG current change (%, negative = inhibition) at 10uM” value rises from -11.2% to 8.76%.

First: N#CCCn1cc(C(=O)Nc2ccc(F)cc2)c(-c2ccc([N+](=O)[O-])cc2)n1
Second: COc1nc(-c2ccc3c(c2)OCO3)n(-c2ccc(NC(=O)CSc3ccccc3)cc2)n1
The “hERG current change (%, negative = inhibition) at 10uM” value of the first is lower: -57.1% for the first, -31% for the second.

First: CC(=O)c1cccc(NC(=O)CN(Cc2ccccc2)S(C)(=O)=O)c1
Second: COc1ccc(S(N)(=O)=O)cc1N(C)S(=O)(=O)c1ccccc1
The “hERG current change (%, negative = inhibition) at 10uM” value of the first is lower: 0.338% for the first, 22.3% for the second.

Going from `O=C(N=Nc1c(O)[nH]c2ccccc12)c1cccc(S(=O)(=O)N2CCCCC2)c1` to `O=C(COC(=O)c1ccc[nH]c1=O)Nc1ccc(S(=O)(=O)N2CCCC2)cc1`, the “hERG current change (%, negative = inhibition) at 10uM” value falls from 7.99% to 6.91%.

Going from `COc1ccc(C2CC(C(F)(F)F)n3ncc(C(=O)Nc4c(C)n(C)n(-c5ccccc5)c4=O)c3N2)cc1` (stereo not drawn) to `COc1ccc(NC(=O)C(=O)NCC(c2ccco2)N2CCc3ccccc3C2)cc1` (stereo not drawn), the “hERG current change (%, negative = inhibition) at 10uM” value falls from 7.57% to -23.5%.

Going from `COc1ccccc1/C=N/N=C(/N)N[N+](=O)[O-]` to `CNC(=O)N1c2ccccc2NC(=O)CC1C` (stereo not drawn), the “hERG current change (%, negative = inhibition) at 10uM” value rises from -6.54% to 9.32%.

First: CCSc1oc(-c2ccccc2)nc1S(=O)(=O)c1ccccc1
Second: c1ccc2c(c1)[nH]c1c3ccccc3sc21
The “hERG current change (%, negative = inhibition) at 10uM” value of the first is lower: -5.75% for the first, 18.5% for the second.

Going from `Fc1cccc(CCNCc2ccccn2)c1` to `Cc1cccc(CCNC(=O)CN(C)S(=O)(=O)c2cnc[nH]2)c1`, the “hERG current change (%, negative = inhibition) at 10uM” value rises from -6.71% to 4.07%.

First: C[C@@H](CO)NC(=O)c1ccc2c3n(nc2c1)-c1ccc(Cl)cc1CO3
Second: Cc1cc(Cl)ccc1OC(C)C(=O)NCCc1ccc2c(c1)OCCO2 (stereo not drawn)
The “hERG current change (%, negative = inhibition) at 10uM” value of the first is lower: -1.96% for the first, 0.31% for the second.

First: O=C(Nc1nc(-c2ccc3c(c2)OCCO3)cs1)C1CCCC1
Second: COc1cccc2cc(C(=O)OC3CCN(C)CC3)c(=O)oc12
The “hERG current change (%, negative = inhibition) at 10uM” value of the first is lower: -8.69% for the first, 0.927% for the second.

Going from `O=C(N/N=C/c1ccc(Cl)cc1Cl)C(=O)NC1CC1` to `O=C(NCCN1CCOCC1)c1cc(Cl)ccc1Cl`, the “hERG current change (%, negative = inhibition) at 10uM” value falls from 17.4% to 1.3%.

First: COc1ccc(/C=C2\SC(=N)N(c3nccs3)C2=O)cc1OC
Second: COc1ccc(-n2c(-c3cccc(OC)c3)nc(=S)c3c2CCCC3)cc1
The “hERG current change (%, negative = inhibition) at 10uM” value of the first is higher: 11.5% for the first, 8.47% for the second.

First: CCc1ccc(C(=O)NNC(=O)c2cccc(N3C(=O)CCC3=O)c2)cc1
Second: O=C(NCCN1CCOCC1)c1cccc(Br)c1
The “hERG current change (%, negative = inhibition) at 10uM” value of the first is higher: 17.2% for the first, -3.21% for the second.

Going from `Cc1ccc(C)c(NC(=O)COC(=O)c2nc(Cl)ccc2Cl)c1` to `CCc1nnc(NC(=O)c2nc(S(=O)(=O)Cc3cccc(C)c3)ncc2Cl)s1`, the “hERG current change (%, negative = inhibition) at 10uM” value falls from 5.77% to -9.57%.

First: CC(C)CNCC(=O)N1c2ccccc2Sc2ccccc21.O=C(O)C(=O)O
Second: CCOc1ccc(NC(=O)CSCc2cnn(-c3ccccc3)c2-n2cccc2)cc1
The “hERG current change (%, negative = inhibition) at 10uM” value of the first is higher: -3.39% for the first, -20.9% for the second.

Going from `O=C(c1ccco1)N1CCCC(c2nc3c(nnn3Cc3ccccc3)c(=O)[nH]2)C1` (stereo not drawn) to `CCOc1ccccc1-n1c(O)c(C=NCc2ccc3c(c2)OCO3)c(=O)[nH]c1=O`, the “hERG current change (%, negative = inhibition) at 10uM” value rises from -8.47% to 7.5%.

First: COCCn1c(SCC(=O)c2c(N)n(C3CC3)c(=O)[nH]c2=O)nc2ccccc21
Second: O=C1CCN(C(=O)c2ccc(Cl)cc2)N1
The “hERG current change (%, negative = inhibition) at 10uM” value of the first is higher: 15.5% for the first, -19.3% for the second.

First: O=C(CCn1cnnn1)Nc1ccc(Cl)c(Cl)c1
Second: CCCC(C)C(=O)NC1CCSC1=O (stereo not drawn)
The “hERG current change (%, negative = inhibition) at 10uM” value of the first is higher: 11.3% for the first, 2.34% for the second.

In the case of `O=S(=O)(NC1CCCC1)OCC(Cl)(Cl)Cl`, the “hERG current change (%, negative = inhibition) at 10uM” value is reported as -2.69%.
